{
  "source": "PubChem BioAssay AID624172",
  "about": "(National Center for Advancing Translational Sciences (NCATS), 2012)",
  "note": "About 25 (0.007%) of roughly 380,000 compounds were called active. This list was built around the results that the source calls inconclusive (neither active nor inactive); the mix of calls is not that of the screen. Calls come from the whole dose curve; as a rule, active = well fitted activation curve with a large enough effect; inconclusive = small, poorly fitted or top-dose-only effect; inactive = no such curve, though single readings can be large or run the other way. No potency is given beside an inconclusive call; the fits are too rough. Potency is the fitted concentration of half-maximal effect; tags give direction and shape of the fitted curve.",
  "data": [
    {"target": "Glucagon-like peptide 1 receptor (Homo sapiens) (UniProt P43220)", "sequence (P43220 whole entry, looked up)": "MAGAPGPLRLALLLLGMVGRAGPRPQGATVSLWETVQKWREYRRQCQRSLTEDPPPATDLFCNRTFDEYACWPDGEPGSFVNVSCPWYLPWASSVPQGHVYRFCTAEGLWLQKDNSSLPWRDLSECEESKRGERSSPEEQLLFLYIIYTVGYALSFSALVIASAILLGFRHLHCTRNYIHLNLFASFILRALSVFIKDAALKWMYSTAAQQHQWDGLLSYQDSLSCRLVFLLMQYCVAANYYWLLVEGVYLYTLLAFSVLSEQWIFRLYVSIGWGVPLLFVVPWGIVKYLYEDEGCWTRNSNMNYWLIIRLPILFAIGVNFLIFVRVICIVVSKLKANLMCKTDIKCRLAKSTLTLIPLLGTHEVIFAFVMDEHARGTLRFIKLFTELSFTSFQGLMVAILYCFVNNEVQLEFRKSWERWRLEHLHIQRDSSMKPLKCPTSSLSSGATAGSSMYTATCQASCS", "experiment": "qHTS of GLP-1 Receptor Agonists; for activation: % of control where 0% means no effect", "conditions": "HEK293 GLP-1R CRE-luciferase, luminescence, 4-6 h, cells express a hypersensitive GLP-1R form; activation: at 45.6 µM (top of the series) unless noted", "values": [
      {"smiles": "CC(C)Oc1ccccc1C1CC(=O)Nc2cc3c(cc21)OCCO3", "note": "(configuration not stated)", "Potency": "inconclusive [activator, partial curve]"},
      {"smiles": "CCOC(=O)c1ccc(-c2c(-c3cc(OC)c(OC)c(OC)c3)noc2C)cc1F", "Potency": "inconclusive [activator, single point]"},
      {"smiles": "NC(=O)c1nsc(C(=O)N(CC(=O)NC2CCCCC2)Cc2ccc(F)cc2)c1N", "activation": "inconclusive: 43.2% [activator]"},
      {"smiles": "COc1ccc(NC(C)=O)cc1S(=O)(=O)NC(Cc1ccccc1)C(=O)NC(C)c1ccccn1", "note": "(configuration not stated)", "Potency": "inconclusive [activator, single point]"},
      {"smiles": "CCCOc1ccc2c(=O)c(-c3cc(C(=O)OC)oc3C)c(C)oc2c1", "Potency": "inconclusive [activator, full curve, poor fit]"},
      {"smiles": "CCN1C(=O)[C@H]2[C@H]3CN=C(SCc4ccc(C#N)cc4)N3[C@@](C)(C(=O)OC)[C@H]2C1=O", "activation": "inactive: -1.02%"},
      {"smiles": "O=C(NC1CCCCCC1)C(=O)NC1CC1", "Potency": "inconclusive [activator, partial curve, poor fit]"},
      {"smiles": "Cc1cc(Cl)ccc1C(=O)C1CCCN(C(=O)CN2CCOC2=O)C1", "note": "(configuration not stated)", "Potency": "inconclusive [activator, full curve, poor fit]"},
      {"smiles": "CSc1nc2[nH]c3c(c2c2nnnn12)CCCC3", "Potency": "inconclusive [activator, partial curve]"},
      {"smiles": "S=C(N/N=C/c1ccc2c(c1)OCO2)NC1CC2CCC1C2", "note": "(configuration not stated)", "Potency": "inconclusive [activator, single point]"},
      {"smiles": "COc1ccc(N2CCOCC2)c(NC(=O)c2cccc3ccccc23)c1", "Potency": "inconclusive [activator, single point]"},
      {"smiles": "COc1ccc(Cl)cc1Nc1nc(-c2cccnc2)cs1", "Potency": "inconclusive [activator, single point]"},
      {"smiles": "CCOC(=O)C1=C(COC(=O)c2cc(S(=O)(=O)N3CCOCC3)ccc2F)NC(=O)NC1C", "note": "(configuration not stated)", "Potency": "inconclusive [activator, single point]"},
      {"smiles": "COc1ccc(OCC(=O)Nc2ccc(N3CCN(C(=O)c4ccco4)CC3)cc2)cc1", "activation": "inactive: 2.72%"},
      {"smiles": "O=C1CCCc2oc3c(cc(NS(=O)(=O)c4ccc5c6c(cccc46)C(=O)N5)c4ccccc43)c21", "Potency": "inconclusive [activator, partial curve, poor fit]"},
      {"smiles": "CC(C)(C)NC(=O)CN(C(=O)CCC(=O)Nc1nccs1)c1ccccc1F", "activation": "inactive: -0.952%"},
      {"smiles": "COc1cccc(C(=O)c2c(-c3ccccc3)ncc3cc(OC)c(OC)cc23)c1", "Potency": "inconclusive [activator, partial curve, poor fit]"}
    ]}
  ]
}
